{"source": "PubChem BioAssay AID938", "about": "(National Center for Advancing Translational Sciences (NCATS), 2007)", "note": "“And” between values parts separate entries of the source, which are not always exact repeats. Identical values can stand only once. In all, about 73,000 compounds went through this assay and about 1,800 (2.5%) were called active. This list was built around the results that the source calls inconclusive (neither active nor inactive); the mix of calls is not that of the screen. Calls follow the shape of the dose curve; as a rule, active = well fitted activation curve with a large enough effect; inconclusive = small, poorly fitted or top-dose-only effect; inactive = no such curve, though single readings can be large or run the other way. Potencies of inconclusive entries are left out as doubtful fits. A structure can be active in one record and inactive in another. Potency is read from the fitted curve at half-maximal effect; tags tell the direction and shape of the fitted curve.", "data": [{"experiment": "qHTS Assay for Agonists of the Thyroid Stimulating Hormone Receptor: Activators of Intracellular cAMP Concentrations in Parental HEK 293; also: nearly all actives have a fitted effect of over 55% in size; as to activation: % of control where 0% means no effect", "conditions": "parental HEK293 CNG cAMP sensor, membrane potential fluorescence; activation: at 57.1 µM (top of the series) unless noted", "procedure,_shortened": "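Counterscreen for endogenous-receptor signalling: CNG-channel HEK 293 cells report cAMP rise by membrane depolarization. After 60 min dye equilibration with 100 uM RO 20-1724, compounds incubated 30 min before bottom-read fluorescence at 590 nm.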", "values": [{"smiles": "O=c1c(-c2ccccc2)nc2cnc(Oc3ccccc3)nc2n1C[C@H]1CCCO1", "Potency": "inconclusive [activator, partial curve]"}, {"smiles": "CCOC(=O)c1nnn(CC(=O)Nc2cc(F)ccc2F)c1C(=O)OCC", "Potency": "inconclusive [activator, single point]"}, {"smiles": "O=C(Nc1ccc2c(c1)OCO2)C1CCN(S(=O)(=O)c2cccs2)CC1", "activation": "inactive: -2.62%"}, {"smiles": "CCOC(=O)c1cnc2c(C)c(Cl)ccc2c1N1CCOCC1", "activation": "inactive: -0.754%"}, {"smiles": "CCCCNC(=O)c1ccc(NS(=O)(=O)c2ccccc2)cc1", "Potency": "inconclusive [activator, single point]"}, {"smiles": "Cc1nc2cc(-c3ccc(F)cc3)nn2c(N2CCOCC2)c1C", "Potency": "inconclusive [activator, single point]"}, {"smiles": "COc1ccc(-c2cc3ccccc3n2CC(O)CNC(CO)(CO)CO)cc1", "note": "(centres undefined)", "activation": "inactive: -2.6%"}, {"smiles": "COc1ccc(-n2c(=O)c(-c3cccc(C#N)c3)nc3cnc(N4CCNCC4)nc32)cc1", "Potency": "inconclusive [activator, single point]"}, {"smiles": "CCCC(NS(=O)(=O)c1ccc(Br)cc1)C(=O)O", "note": "(centres undefined)", "Potency": "inconclusive [activator, single point]"}, {"smiles": "COc1ccccc1CNc1nc(-c2ccccc2CN(C)C)nc2ccccc12", "Potency": "inconclusive [activator, partial curve]"}, {"smiles": "COc1cccc(OCCSc2nnc3sc4ccccc4n23)c1", "Potency": "active: 15.8 µM"}, {"smiles": "CCN(CC)CC(O)COc1ccccc1C(=O)CCc1ccccc1", "note": "(centres undefined)", "Potency": "inconclusive [activator, partial curve]"}, {"smiles": "COc1nc(NC23CC4CC(CC(C4)C2)C3)nc(OC)n1", "Potency": "inconclusive [activator, single point]"}, {"smiles": "CN1CCN(CCCNC(=O)c2cc3c(=O)oc4ccccc4c3s2)CC1", "Potency": "inconclusive [activator, single point]"}, {"smiles": "O=C(c1ccccc1)c1ccc(N2CCOCC2)c(F)c1", "activation": "inactive: 25.5%"}, {"smiles": "O=C(NCCNC(=O)C(c1ccccc1)c1ccccc1)c1ccco1", "Potency": "inconclusive [activator, single point]"}, {"smiles": "Cc1cc2nc(SCCN3CCCC3)[nH]c2cc1C", "Potency": "inconclusive [activator, single point]"}, {"smiles": "CCOc1ccc(NC(=O)N2CC=C(n3c(=O)[nH]c4ccccc43)CC2)cc1", "Potency": "inconclusive [activator, single point]"}, {"smiles": "C=C(C)c1nc(N)nc(N)n1", "activation": "inactive: 9.23%"}, {"smiles": "Cc1ccc(Cn2c(NC(=O)c3ccco3)nc3ccccc32)cc1", "Potency": "active: 25.1 µM"}, {"smiles": "COC(=O)c1ccccc1NC(=O)c1ccc(COc2ccccc2)o1", "Potency": "inconclusive [activator, single point]"}, {"smiles": "COc1ncc2nc(CCc3ccccc3)c(=O)n(CCc3ccccc3)c2n1", "Potency": "inconclusive [activator, full curve, poor fit]"}, {"smiles": "CCOC(=O)C1CCCN(C(=O)c2sc3nc(-c4ccc(OC)cc4)cn3c2C)C1", "note": "(centres undefined)", "Potency": "inconclusive [activator, single point]"}, {"smiles": "CCN(CC)CCn1c(-c2ccccc2)nc2c(NC3CCCCC3)nc(C)nc21", "Potency": "inconclusive [activator, single point]"}, {"smiles": "CC(C)Cn1c(SC(C)C(=O)Nc2ccc3c(c2)OCCO3)nc2ccccc2c1=O", "note": "(centres undefined)", "Potency": "inconclusive [activator, full curve]"}, {"smiles": "COc1ccc(N/C(=N\\c2nc(C)cc(C)n2)NC(C)=O)cc1OC", "Potency": "inconclusive [activator, single point]"}, {"smiles": "CCC(=O)N(Cc1cc2cc(OC)ccc2[nH]c1=O)c1cc(C)ccc1C", "Potency": "inconclusive [activator, partial curve]"}, {"smiles": "Cc1ccccc1N1C(=O)CC(N2CCC(C(N)=O)CC2)C1=O", "note": "(centres undefined)", "Potency": "inconclusive [activator, single point]"}, {"smiles": "COC(=O)c1cccc(NC(=O)CN2CCN(c3ccc(OC)cc3)CC2)c1", "Potency": "inconclusive [activator, single point]"}, {"smiles": "COC(=O)Nc1c(-c2ccccc2)nc2ccc(C)cn12", "Potency": "inconclusive [activator, single point]"}, {"smiles": "CCCc1nc(SCC(=O)Nc2ccccc2OC)c2c(=O)n(C)c(=O)n(C)c2n1", "Potency": "inconclusive [activator, partial curve]"}, {"smiles": "Cc1nnc(SCC2CCCO2)n1-c1ccccc1", "note": "(centres undefined)", "Potency": "inconclusive [activator, single point]"}, {"smiles": "Cc1cccc(OCC(=O)Nc2cccc(O)c2)c1", "activation": "inactive: -1.06%"}, {"smiles": "Cc1ccc(/C(=C/CN2CCCC2)c2ccccn2)cc1", "Potency": "inactive and active: 25.1 µM"}, {"smiles": "CC(NC(=O)COC(=O)CCNC(=O)c1ccco1)C12CC3CC(CC(C3)C1)C2", "note": "(centres undefined)", "activation": "inactive: -1.32%"}, {"smiles": "COc1ccc(OC)c(CN2CCN(C(=O)c3cccs3)CC2)c1", "activation": "inactive: 11%"}, {"smiles": "Clc1ccccc1-c1nc(-c2ccncc2)no1", "activation": "inactive: 4.44% [at 11.4 µM]"}, {"smiles": "Cc1ccnc(NC(=O)CCC(=O)N(CC(=O)NC2CCCCC2)Cc2ccc3c(c2)OCO3)c1", "Potency": "inconclusive [activator, single point]"}, {"smiles": "O=c1[nH]c2ccc(S(=O)(=O)N3CCN(Cc4ccccc4)CC3)cc2[nH]c1=O", "Potency": "inconclusive [activator, single point]"}, {"smiles": "COc1ccc(OCCNC(=O)c2ccccc2OCC(=O)N2CCCCC2)cc1", "Potency": "inconclusive [activator, single point]"}, {"smiles": "CCOC(=O)c1c(NC(=O)CSc2nnc(C)c(=O)[nH]2)sc2c1CCC2", "Potency": "inconclusive [activator, full curve, poor fit]"}, {"smiles": "Cc1ccnc(SCC(=O)Nc2sc3c(c2C#N)CCCC3)n1", "Potency": "active: 20 µM"}, {"smiles": "O=S(=O)(c1ccc2ccccc2c1)n1cnc2ccccc21", "Potency": "inconclusive [activator, partial curve]"}, {"smiles": "NC(=O)C1CC(O)CN1c1nc(CN2CCOCC2)nc2scc(-c3ccccc3)c12", "note": "(centres undefined)", "Potency": "inconclusive [activator, single point]"}, {"smiles": "CC(C)c1ccc(S(=O)(=O)N2CCN(CC(=O)Nc3ccc4c(c3)OCO4)CC2)cc1", "Potency": "inconclusive [activator, single point]"}, {"smiles": "CCCC(c1nnnn1Cc1ccc(OC)cc1)N1CCN(c2ccccc2)CC1", "note": "(centres undefined)", "Potency": "inconclusive [activator, full curve]"}, {"smiles": "Cc1cc(C)c(S(=O)(=O)Nc2ccc(O)cc2)c(C)c1", "Potency": "inconclusive [activator, single point]"}, {"smiles": "CCC(C)(C)NC(=O)C(c1ccccc1F)N(Cc1ccco1)C(=O)Cn1nnc2ccccc21", "note": "(centres undefined)", "Potency": "active: 15.8 µM"}, {"smiles": "O=S(=O)(c1ccccc1)c1cccc(S(=O)(=O)N2CCCCC2)c1", "Potency": "inconclusive [activator, partial curve]"}, {"smiles": "Cc1nc(N2CCN(C(=O)c3ccco3)CC2)c2c3c(sc2n1)CCC3", "activation": "inactive: 28.8%"}, {"smiles": "CCOC(=O)NCc1cc(-c2nn(C)c(=O)c3ccccc23)ccc1C", "activation": "inactive: 5.21%"}, {"smiles": "CCC(=O)NCCNC(=O)c1c(SC)nsc1SC", "Potency": "inconclusive [activator, single point]"}, {"smiles": "Cc1ccccc1-n1nc(C)c2cc(C(=O)N3CCN(S(=O)(=O)c4ccc(F)cc4)CC3)sc21", "activation": "inactive: 9.8%"}, {"smiles": "COC(=O)[C@@H]1CC[C@H](C)[C@@H](c2ccc(C)cc2)N1C(=O)c1ccc(/C=N\\O[C@@H]2O[C@H](COC(C)=O)[C@H](OC(C)=O)[C@H](OC(C)=O)[C@H]2OC(C)=O)cc1", "activation": "inactive: 25.4% [at 11.4 µM]"}, {"smiles": "COC(=O)NC/C=C\\c1nc(CCCO)co1", "activation": "inactive: 0.504% [at 11.4 µM]"}, {"smiles": "O=C(O)[C@@H]1[C@H](C(=O)O)[C@H]2C(=O)C=C[C@H]1N2Cc1ccccc1", "activation": "inactive: -0.434% [at 11.4 µM]"}, {"smiles": "Cc1cc(OC(=O)CNC(=O)OC(C)(C)C)c2c(C)cc(=O)oc2c1", "Potency": "inconclusive [activator, single point]"}, {"smiles": "COc1ccc(-c2noc(-c3ccccc3Cl)n2)cc1OC", "Potency": "inconclusive [activator, single point]"}, {"smiles": "Cc1cccc2cc(CN(Cc3ccc4c(c3)OCO4)Cc3nnnn3C3CCCC3)c(=O)[nH]c12", "Potency": "active: 31.6 µM"}, {"smiles": "CCOC(=O)c1cnn(-c2sc(C(=O)OCC)c(C)c2C(=O)OCC)c1N", "Potency": "inconclusive [activator, single point]"}, {"smiles": "COCCn1c(=O)c(C)nc2cnc(N3CCOCC3)nc21", "Potency": "inconclusive [activator, single point]"}, {"smiles": "CCOc1nc(-c2ccc(OC)cc2)ccc1-c1noc(-c2ccncc2)n1", "activation": "inactive: -2.76%"}, {"smiles": "COc1ccc(C(=O)N2CCC3(CC2)CN(C(=O)NC(C)C)C3)cc1", "Potency": "inconclusive [activator, single point]"}, {"smiles": "CCOC(=O)c1ccc(-n2c(-c3ccco3)nc3ccccc3c2=O)cc1", "Potency": "inconclusive [activator, single point]"}, {"smiles": "COc1ccccc1OCC(O)Cn1c(=N)n(Cc2ccccc2)c2ccccc21", "note": "(centres undefined)", "Potency": "inconclusive [activator, partial curve]"}, {"smiles": "CC(C)CNC(=O)CN(C1CCCCC1)S(=O)(=O)c1ccccc1", "activation": "inactive: 29%"}, {"smiles": "O=C(CN1C(=O)NC2(CCCCCC2)C1=O)c1ccc2c(c1)OCCO2", "Potency": "active: 10 µM"}, {"smiles": "Cc1ccc2nc(Nc3ccc4[nH]c(=O)[nH]c4c3)c(-n3nc(C)cc3C)nc2c1", "activation": "inactive: -28.3%"}, {"smiles": "Cc1cc(C(=O)Nc2sc(C)c(C)c2C#N)no1", "Potency": "inconclusive [activator, single point]"}]}]}
